# According to the supplement of paper PMC8728848:
# The other results are listed elsewhere or left out.
# B1: Epa7 (Candida glabrata), Q6DTM6_CANGB (protein)
# chain: MGSSHHHHHHSSGLVPRGSHMKDDYSSFLSNNNLGWTDPTEFPLGCSPNVTTPKNGLSMELYSYDLRKNGSYPCWDAAYLDPNYPRTGYKSHRLLAKVDGVTGNINFYYHATKGCTPEIDHLPASYNYPKPLTMTNFTMLLYGYFKPKVTGYHTFTISADDLLFVNFGAGNAFDCCKRESSADDFGNYQAYAVWGSQTAKDDLTVHLDAGLYYPIRIFFNNREYDAELSLTLKTESDSNPVIDFSDYFYSFDDTKDGCPGLVSYDTS
# Columns and labels:
# Assay in all cases: glycan array binding signal (z-score within array); higher = stronger binding
# Settings in all cases: glycan notation: IUPAC condensed, linker removed
# [1] = molecular target: Neu5Ac(a2-3)Gal(b1-4)GlcNAc(b1-2)Man(a1-3)[Neu5Ac(a2-6)Gal(b1-4)GlcNAc(b1-2)Man(a1-6)]Man(b1-4)GlcNAc(b1-4)GlcNAc
# In short: (§1)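 Glycan array binding is given as a within-array Z-score, which can be read as non-binding when negative. The arrays, 3228 of them, came from the Consortium for Functional Glycomics database and were retained only where the protein sequence was available. Z-scores were averaged across arrays of the same protein sequence at different concentrations or buffers and across linkers.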
# [2] = molecular target: Neu5Ac(a2-3)Gal(b1-4)GlcNAc(b1-2)[Neu5Ac(a2-3)Gal(b1-4)GlcNAc(b1-4)]Man(a1-3)[GlcNAc(b1-4)][Neu5Ac(a2-3)Gal(b1-4)GlcNAc(b1-2)[Neu5Ac(a2-3)Gal(b1-4)GlcNAc(b1-6)]Man(a1-6)]Man(b1-4)GlcNAc(b1-4)GlcNAc
# In short: as §1
# [3] = molecular target: Neu5Ac(a2-3)Gal(b1-4)GlcNAc(b1-2)[Neu5Ac(a2-3)Gal(b1-4)GlcNAc(b1-4)]Man(a1-3)[GlcNAc(b1-4)][Neu5Ac(a2-3)Gal(b1-4)GlcNAc(b1-4)Man(a1-6)]Man(b1-4)GlcNAc(b1-4)GlcNAc
# In short: as §1
# [4] = molecular target: Neu5Ac(a2-3)Gal(b1-4)GlcNAc(b1-2)[Neu5Ac(a2-3)Gal(b1-4)GlcNAc(b1-6)]Man(a1-6)[Neu5Ac(a2-3)Gal(b1-4)GlcNAc(b1-2)Man(a1-3)]Man(b1-4)GlcNAc(b1-4)GlcNAc
# In short: as §1
# [5] = molecular target: Neu5Ac(a2-3)Gal(b1-4)GlcNAc(b1-2)[Neu5Ac(a2-3)Gal(b1-4)GlcNAc(b1-6)]Man(a1-6)[Neu5Ac(a2-3)Gal(b1-4)GlcNAc(b1-2)Man(a1-3)][GlcNAc(b1-4)]Man(b1-4)GlcNAc(b1-4)GlcNAc
# In short: as §1
# [6] = molecular target: Neu5Ac(a2-3)Gal(b1-4)GlcNAc(b1-3)Gal
# In short: as §1
# [7] = molecular target: Neu5Ac(a2-3)Gal(b1-4)GlcNAc(b1-3)Gal(b1-3)GlcNAc
# In short: as §1
# [8] = molecular target: Neu5Ac(a2-3)Gal(b1-4)GlcNAc(b1-3)Gal(b1-4)GlcNAc
# In short: as §1
# [9] = molecular target: Neu5Ac(a2-3)Gal(b1-4)GlcNAc(b1-3)Gal(b1-4)GlcNAc(b1-2)Man(a1-3)[Neu5Ac(a2-3)Gal(b1-4)GlcNAc(b1-3)Gal(b1-4)GlcNAc(b1-2)Man(a1-6)]Man(b1-4)GlcNAc(b1-4)GlcNAc
# In short: as §1
# [10] = molecular target: Neu5Ac(a2-3)Gal(b1-4)GlcNAc(b1-3)Gal(b1-4)GlcNAc(b1-3)Gal(b1-4)GlcNAc
# In short: as §1
# [11] = molecular target: Neu5Ac(a2-3)Gal(b1-4)GlcNAc(b1-3)Gal(b1-4)GlcNAc(b1-3)Gal(b1-4)GlcNAc(b1-2)Man(a1-3)[Neu5Ac(a2-3)Gal(b1-4)GlcNAc(b1-3)Gal(b1-4)GlcNAc(b1-3)Gal(b1-4)GlcNAc(b1-2)Man(a1-6)]GalNAc
# In short: as §1
# [12] = molecular target: Neu5Ac(a2-3)Gal(b1-4)GlcNAc(b1-3)Gal(b1-4)GlcNAc(b1-3)GalNAc
# In short: as §1
# [13] = molecular target: Neu5Ac(a2-3)Gal(b1-4)GlcNAc(b1-3)Gal(b1-4)GlcNAc(b1-3)[Neu5Ac(a2-3)Gal(b1-4)GlcNAc(b1-3)Gal(b1-4)GlcNAc(b1-6)]GalNAc
# In short: as §1
# [14] = molecular target: Neu5Ac(a2-3)Gal(b1-4)GlcNAc(b1-3)Gal(b1-4)GlcNAc(b1-6)[Gal(b1-3)]GalNAc
# In short: as §1
# [15] = molecular target: Neu5Ac(a2-3)Gal(b1-4)GlcNAc(b1-3)Gal(b1-4)[Fuc(a1-3)]GlcNAc
# In short: as §1
# [16] = molecular target: Neu5Ac(a2-3)Gal(b1-4)GlcNAc(b1-3)GalNAc
# In short: as §1
# [17] = molecular target: Neu5Ac(a2-3)Gal(b1-4)GlcNAc(b1-3)[Neu5Ac(a2-3)Gal(b1-4)GlcNAc(b1-6)]GalNAc
# In short: as §1
# [18] = molecular target: Neu5Ac(a2-3)Gal(b1-4)GlcNAc(b1-6)GalNAc
# In short: as §1
# [19] = molecular target: Neu5Ac(a2-3)Gal(b1-4)GlcNAc(b1-6)[Gal(b1-3)]GalNAc
# In short: as §1
# [20] = molecular target: Neu5Ac(a2-3)Gal(b1-4)GlcNAc(b1-6)[Neu5Ac(a2-3)Gal(b1-3)]GalNAc
# In short: as §1
# [21] = molecular target: Neu5Ac(a2-3)Gal(b1-4)GlcNAc6S
# In short: as §1
# [22] = molecular target: Neu5Ac(a2-3)Gal(b1-4)[Fuc(a1-3)]GlcNAc
# In short: as §1
# [23] = molecular target: Neu5Ac(a2-3)Gal(b1-4)[Fuc(a1-3)]GlcNAc(b1-2)Man
# In short: as §1
# [24] = molecular target: Neu5Ac(a2-3)Gal(b1-4)[Fuc(a1-3)]GlcNAc(b1-3)Gal
# In short: as §1
# [25] = molecular target: Neu5Ac(a2-3)Gal(b1-4)[Fuc(a1-3)]GlcNAc(b1-3)Gal(b1-4)GlcNAc
# In short: as §1
# [26] = molecular target: Neu5Ac(a2-3)Gal(b1-4)[Fuc(a1-3)]GlcNAc(b1-3)Gal(b1-4)[Fuc(a1-3)]GlcNAc(b1-3)Gal(b1-4)[Fuc(a1-3)]GlcNAc
# In short: as §1
# [27] = molecular target: Neu5Ac(a2-3)Gal(b1-4)[Fuc(a1-3)]GlcNAc(b1-3)GalNAc
# In short: as §1
# [28] = molecular target: Neu5Ac(a2-3)Gal(b1-4)[Fuc(a1-3)]GlcNAc(b1-6)[Gal(b1-3)]GalNAc
# In short: as §1
# [29] = molecular target: Neu5Ac(a2-3)Gal(b1-4)[Fuc(a1-3)]GlcNAc(b1-6)[Neu5Ac(a2-3)Gal(b1-3)]GalNAc
# In short: as §1
# [30] = molecular target: Neu5Ac(a2-3)Gal(b1-4)[Fuc(a1-3)]GlcNAc6S
# In short: as §1
# [31] = molecular target: Neu5Ac(a2-3)Gal6S(b1-4)GlcNAc
# In short: as §1
# [32] = molecular target: Neu5Ac(a2-3)Gal6S(b1-4)[Fuc(a1-3)]GlcNAc
# In short: as §1
# [33] = molecular target: Neu5Ac(a2-3)GalNAc
# In short: as §1
# [34] = molecular target: Neu5Ac(a2-3)GalNAc(b1-4)GlcNAc
# In short: as §1
# [35] = molecular target: Neu5Ac(a2-3)[GalNAc(b1-4)]Gal(b1-4)Glc
# In short: as §1
# [36] = molecular target: Neu5Ac(a2-3)[GalNAc(b1-4)]Gal(b1-4)GlcNAc
# In short: as §1
# [37] = molecular target: Neu5Ac(a2-3)[GalNAc(b1-4)]Gal(b1-4)GlcNAc(b1-3)GalNAc
# In short: as §1
binder,measurement,setting,value
B1,glycan array binding signal (z-score),[1],-0.243
same,glycan array binding signal (z-score),[2],-0.241
same,glycan array binding signal (z-score),[3],-0.24
same,glycan array binding signal (z-score),[4],-0.215
same,glycan array binding signal (z-score),[5],-0.243
same,glycan array binding signal (z-score),[6],-0.245
same,glycan array binding signal (z-score),[7],-0.261
same,glycan array binding signal (z-score),[8],-0.231
same,glycan array binding signal (z-score),[9],-0.212
same,glycan array binding signal (z-score),[10],-0.255
same,glycan array binding signal (z-score),[11],-0.219
same,glycan array binding signal (z-score),[12],-0.24
same,glycan array binding signal (z-score),[13],-0.206
same,glycan array binding signal (z-score),[14],1.11
same,glycan array binding signal (z-score),[15],-0.258
same,glycan array binding signal (z-score),[16],-0.235
same,glycan array binding signal (z-score),[17],-0.242
same,glycan array binding signal (z-score),[18],-0.229
same,glycan array binding signal (z-score),[19],0.846
same,glycan array binding signal (z-score),[20],-0.181
same,glycan array binding signal (z-score),[21],-0.257
same,glycan array binding signal (z-score),[22],-0.26
same,glycan array binding signal (z-score),[23],-0.218
same,glycan array binding signal (z-score),[24],-0.263
same,glycan array binding signal (z-score),[25],-0.189
same,glycan array binding signal (z-score),[26],-0.253
same,glycan array binding signal (z-score),[27],0.024
same,glycan array binding signal (z-score),[28],0.218
same,glycan array binding signal (z-score),[29],-0.087
same,glycan array binding signal (z-score),[30],-0.259
same,glycan array binding signal (z-score),[31],-0.251
same,glycan array binding signal (z-score),[32],-0.259
same,glycan array binding signal (z-score),[33],-0.261
same,glycan array binding signal (z-score),[34],-0.26
same,glycan array binding signal (z-score),[35],-0.265
same,glycan array binding signal (z-score),[36],-0.257
same,glycan array binding signal (z-score),[37],-0.231
